Reference: publication PMC4336329 (PLoS ONE, 2015)
Out of some 310,000 compounds screened, about 2,200 (0.71%) showed an effect of 50% or more. The effect is printed as a negative number. This is one part of the list.

These compounds were tested against human ether-à-go-go-related gene (hERG) potassium channel (human, UniProt Q12809) (assay: primary screen, population patch clamp on CHO cells stably expressing hERG).
human ether-à-go-go-related gene (hERG) potassium channel, sequence (Q12809 whole entry, looked up): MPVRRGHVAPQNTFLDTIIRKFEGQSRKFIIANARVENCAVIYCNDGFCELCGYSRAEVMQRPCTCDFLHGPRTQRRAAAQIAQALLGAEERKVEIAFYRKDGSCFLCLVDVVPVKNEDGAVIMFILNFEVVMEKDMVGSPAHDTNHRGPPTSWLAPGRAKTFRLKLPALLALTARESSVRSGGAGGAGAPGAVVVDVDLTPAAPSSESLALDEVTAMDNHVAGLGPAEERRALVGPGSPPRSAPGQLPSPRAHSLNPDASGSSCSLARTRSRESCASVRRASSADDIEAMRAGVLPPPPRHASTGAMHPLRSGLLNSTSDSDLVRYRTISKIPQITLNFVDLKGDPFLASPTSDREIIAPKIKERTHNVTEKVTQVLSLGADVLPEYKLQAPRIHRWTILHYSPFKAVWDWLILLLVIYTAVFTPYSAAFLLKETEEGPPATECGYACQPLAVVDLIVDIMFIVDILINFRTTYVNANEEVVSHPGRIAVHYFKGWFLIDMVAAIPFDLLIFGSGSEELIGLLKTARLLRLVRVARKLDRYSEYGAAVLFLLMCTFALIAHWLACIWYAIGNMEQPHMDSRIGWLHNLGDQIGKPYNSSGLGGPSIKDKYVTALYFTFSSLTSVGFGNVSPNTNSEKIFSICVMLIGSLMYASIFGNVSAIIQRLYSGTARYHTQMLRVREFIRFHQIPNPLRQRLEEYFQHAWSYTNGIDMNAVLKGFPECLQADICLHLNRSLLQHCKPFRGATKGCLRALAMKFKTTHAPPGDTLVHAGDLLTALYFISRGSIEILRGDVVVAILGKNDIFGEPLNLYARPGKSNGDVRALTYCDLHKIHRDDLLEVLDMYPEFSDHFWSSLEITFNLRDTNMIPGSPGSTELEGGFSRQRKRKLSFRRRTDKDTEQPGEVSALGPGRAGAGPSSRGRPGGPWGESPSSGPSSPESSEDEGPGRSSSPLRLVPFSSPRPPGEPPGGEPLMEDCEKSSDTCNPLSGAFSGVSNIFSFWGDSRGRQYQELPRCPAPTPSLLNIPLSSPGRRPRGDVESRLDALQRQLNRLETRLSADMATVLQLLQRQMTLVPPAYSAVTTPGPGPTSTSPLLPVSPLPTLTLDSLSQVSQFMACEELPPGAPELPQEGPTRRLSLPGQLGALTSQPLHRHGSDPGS

SMILES | hERG current change (%, negative = inhibition) at 1uM [%]
COc1cc(CC(=O)NCC(C)(C)N2CCOCC2)cc(OC)c1OC | 13.5
Cc1ccc(NC(=O)Cn2nnc(C(=O)NCc3ccccc3)c2N)cc1C | 14.1
O=S(=O)(Nc1ccc(Cl)cc1)c1ccc(N2CCOCC2)c(NC(=S)NCCN2CCOCC2)c1 | 13.1
COC(=O)C(C)Sc1nc2c(c(=O)n(C)c(=O)n2C)n1CCC(C)C (stereo not shown) | -4.09
O=C(COc1ncnc2scc(-c3ccc(Cl)cc3)c12)NCc1ccco1 | 6.41
C/C(=N\OC(=O)Nc1ccccc1)c1ccc(C)cc1 | 5.77
CCN1CCN(c2cc(C)c3cc(NC(=S)N4CCN(c5ccccc5)CC4)ccc3n2)CC1 | 8.98
Cc1[nH]c2ccccc2c1C(=O)C(=O)N(C)C1CCCCC1 | 7.11
O=C(c1ccccc1)c1cccn1CC(=O)N1CCCCCC1 | 9.43
CCc1ccc(-c2nc(CN3CCC(C(=O)NCc4ccc(F)cc4)CC3)c(C)o2)cc1 | -12.4
CCOCc1cnc(C)nc1NCC(=O)c1c(C)[nH]c2cc(C)ccc12 | 1.62
COc1ccc(NC(=O)CN(C)C(=O)CCCN2C(=O)c3cccc4cccc(c34)C2=O)cc1 | -6.84
COc1ccc(NC(=O)c2ccc([N+](=O)[O-])s2)c([N+](=O)[O-])c1 | 6.23
O=C(CC1NCCc2ccccc21)Nc1ccccc1 (stereo not shown) | 4.29
CN1C(=O)c2cccc3c(S(N)(=O)=O)ccc1c23 | 8.38
N#CCSc1nnc(Cc2cccc3ccccc23)n1C1CCCCC1 | 9.65
Cc1ccc(NC(=O)Nc2ccno2)cc1 | 13.7
CCn1cc(C(=O)NCCCN2CCCC(C)C2)c(=O)c2cc(S(=O)(=O)N3CCOCC3)ccc21 (stereo not shown) | 16.1
COC(=O)Cn1c(CCS(=O)(=O)c2ccc(Cl)cc2)nc2ccccc21 | 13.7
S=C(NCc1cccs1)Nc1cccc2ccccc12 | 3.28
Cc1[nH+]csc1CCOC(=O)C1C2CC3CC(C2)CC1C3.[Cl-] (stereo not shown) | 7.6
CCOC(=O)c1cc2c(C)n(-c3ccc(N(C)C)cc3)c(C)c2cc(C(=O)OCC)c1=O | 12.6

SMILES | hERG current change (%, negative = inhibition) at 1uM [%]
CCCCC(=O)Nc1ccccc1Oc1ccccc1 | 21
COC(=O)c1sc(N(C)C)c(C#N)c1-c1ccccc1 | 15.2
O=C(CCc1ccc(S(=O)(=O)NCc2ccccc2)cc1)NCc1ccc2c(c1)OCO2 | -4.65
CCCSc1nc2sc3c(c2c(=O)[nH]1)CC(C)CC3 (stereo not shown) | 15.7
COc1ccccc1/C=C/C=N/NC(=O)c1cc(-c2ccc(C)o2)[nH]n1 | 9.48
CCn1c(C)nnc1SCC(=O)Nc1ccc(C(C)=O)cc1 | 11.1
O=C(CCN1CCOCC1)NNC(=O)Nc1cccc([N+](=O)[O-])c1 | 11.2
COc1cccc(NC(=O)C2CCCC2)c1 | 14.4
Cc1nn(Cc2ccccc2Cl)c(C)c1NC(=O)c1noc(C(C)C)c1[N+](=O)[O-] | 10.1
CCN(CC(=O)NCc1ccc(Cl)cc1)C(=O)CSc1ccccc1F | 5.91
COc1ccc(OC)c(/C(O)=C/C(=O)C(=O)Nc2ccccc2OC)c1 | 5.52
CN(C(=O)c1ccc(NC(=O)Cc2cccc(NC(=O)C3CCN(C(=O)C4CC4)CC3)c2)cc1)C1CCCC1 | 18.3
O=C(Nc1ccc(NC(=S)NC(=O)C(c2ccccc2)c2ccccc2)cc1)c1ccccc1 | 2.03
CSc1ncc(C(=O)Nc2ccc(C)cc2C)c(C)n1 | 23
Cn1nc(C(=O)OCC(=O)NC2CCS(=O)(=O)C2)c2ccccc2c1=O (stereo not shown) | -0.731
COc1ccc(CCN(C)C(=O)c2cccc(S(=O)(=O)NCc3ccccc3)c2)cc1OC | -1.14
COc1cc(-n2c(=O)c3ccccc3n(Cc3cccc(C)c3)c2=O)cc(OC)c1OC | 7.91
CN1CCN(S(=O)(=O)c2cccc(C(=O)Nc3cc(C(F)(F)F)ccc3N3CCCC3)c2)CC1 | 4.44
COc1ccc(CCNC(=O)C2CCN(S(=O)(=O)c3ccc(C)cc3)CC2)cc1OC | 11.8
CCOC(=O)Nc1ccc2c(c1)N(C(=O)CCN1CCN(C)CC1)c1ccccc1S2.Cl | 0.42
CC(C)(C)OC(=O)N1CCC(C(=O)N[C@@H](Cc2ccccc2)C(=O)O)(c2ccccc2)CC1 | 2.95
O=c1[nH]c(=O)n(Cc2ccco2)c2c1C(C(F)(F)F)(C(F)(F)F)N=C(CCc1ccccc1)N2 | 7.65

SMILES | hERG current change (%, negative = inhibition) at 1uM [%]
CCN1CCN(C(c2cccc(OC)c2OC)c2nnnn2Cc2ccco2)CC1.Cl (stereo not shown) | 4.69
Cc1cc(NC(=O)COC(=O)c2cc(S(=O)(=O)N(C)C)ccc2Cl)no1 | 9.45
CC(C)(C)NCc1ccccc1OCc1cccs1.Cl | 19.3
Cc1nnc2c(NCCC(C)C)nc3ccccc3n12 | 13.3
CCOc1cc(NC(=O)c2ccccc2OC)c(OCC)cc1NC(=O)c1ccccc1 | 12.9
CC1=C(C(N)=O)S(=O)(=O)c2ccccc21 | 11.3
COc1ccc(NC(=O)C2C3C=CC(C3)C2C(=O)NCc2ccco2)cc1 (stereo not shown) | -7.31
COc1ccc(NC(=O)CCc2ccc(OC)c(OC)c2)cn1 | 11.9
O=C(Cc1ccc([N+](=O)[O-])cc1)c1ccc(O)cc1O | -6.24
COc1ccc(C(CCN2CCCCC2)c2c(O)cc(OC)cc2OC)cc1 (stereo not shown) | -71.3
COc1ccc(CCNCCC(=O)Nc2c(C)cc(C)cc2C)cc1OC.Cl | -2.34
Cc1cc2c(c(=O)n1Cc1ccccn1)C(c1ccc3c(c1)OCO3)C(C#N)=C(N)O2 (stereo not shown) | 4.13
CC1Cc2ccccc2N1C(=O)COC(=O)/C=C/c1ccc(F)cc1 (stereo not shown) | 4.39
Cc1c(NC(=O)CN2CCN(c3cccc(Cl)c3)CC2)c(=O)n(-c2ccccc2)n1C | 14.4
COc1cc(C2C(C#N)=C(N)Oc3c2oc(CO)cc3=O)ccc1OC(C)C (stereo not shown) | 10.6
CCc1ccc(S(=O)(=O)NCc2cn3c(C)csc3n2)s1 | 6.79
CCOc1ccc(N=Cc2c(O)n(-c3cc(C)cc(C)c3)c(=O)[nH]c2=O)cc1 | 10.8
O=C(Nc1nc2ccc(S(=O)(=O)N3CCCC3)cc2s1)c1cccs1 | 13.2
CCCSc1nc2c(c(=O)[nH]c(=O)n2C)n1CC(O)COc1ccccc1 (stereo not shown) | 6.58
COc1ccc(-n2cnnc2SCC(=O)N(C)c2ccccc2)cc1 | 8.45
CCOc1ccc(NS(=O)(=O)c2ccc(N)cc2)cc1 | 16.7
CC1CN(c2nnc(-c3ccccc3)c3ccccc23)CC(C)O1 (stereo not shown) | 9.51

SMILES | hERG current change (%, negative = inhibition) at 1uM [%]
COc1ccc(S(=O)(=O)c2ccc(OC)c(OC)c2)cc1OC | 7.86
COc1ccc(S(=O)(=O)NCc2cccnc2)c2ccccc12 | 9.51
CCNC(=O)c1ccccc1NC(=O)C1CC(=O)N(C(C)C)C1 (stereo not shown) | 10.1
CCOc1ccc(N2C(=O)CC(SC(=NC)Nc3cccc(F)c3)C2=O)cc1 (stereo not shown) | -0.651
O=c1[nH]c2ccc(S(=O)(=O)N3CCCCC3)cc2[nH]1 | 13.9
COc1cc(-n2c(C)nc3cc(C(=O)N4CCOCC4)ccc32)cc(OC)c1OC | -1.13
Cc1onc(-c2c(F)cccc2Cl)c1C(=O)OCC(=O)c1c[nH]c2ccccc12 | 11.9
COCC(=O)N1CCc2ccc(NC(=O)c3ccc(C(F)(F)F)cc3)cc2C1 | 0.619
Nc1nnc(COc2ccccc2)s1 | 7
Cc1ccc(N(CC(=O)NCc2cccs2)S(=O)(=O)c2cccs2)cc1 | -1.25
COC(=O)c1c(NC(=O)CC2SC(N)=NC2=O)sc2c1CCC(C)C2 (stereo not shown) | 8.08
Cc1csc(NC(=O)Nc2cccc(Cl)c2)n1 | -1.41
O=C(Nc1nnc(-c2ccco2)o1)C1CCCCC1 | 2.48
NCCSc1c(-c2ccc(Cl)cc2)[nH]c2ccccc12 | -10.9
Oc1ccc(/C=N/N=C/c2ccc(O)cc2)cc1 | 10.8
Cc1cccc(C)c1Nc1nnc(SCC(=O)c2ccc3c(c2)NC(=O)CO3)s1 | 9.58
COC(=O)CNC(=O)Cn1ccc2ccccc2c1=O | 12.5
COCCNC(=S)NNC(=O)c1ccc(-n2cnnn2)cc1 | -3.01
COC(=O)C1=C(C)N(Cc2ccccc2)C(=O)N[C@H]1c1ccco1 | 17.7
C/C(CC(=O)Nc1ccc2c(c1)OCCO2)=N\NC(=O)COc1ccccc1C | 16.6
CC1CCN(C(=O)CSc2nnc(CNC(=O)c3c(F)cccc3F)o2)CC1 | 1.18
COCCn1nnnc1C(c1cccc(OC)c1OC)N1CCN(C(=O)c2ccco2)CC1.Cl (stereo not shown) | 20.1
